# Data from publication PMC4336329 (PLoS ONE, 2015).
# Hit rate of the full screen: of about 310,000 compounds, about 2,200 (0.71%) showed an effect of 50% or more. The effect is printed as a negative number. The list shows a part of the results.
# Target: human ether-à-go-go-related gene (hERG) potassium channel (human, UniProt Q12809)
# Assay: primary screen, population patch clamp on CHO cells stably expressing hERG
# Chain of human ether-à-go-go-related gene (hERG) potassium channel (Q12809 whole entry, looked up): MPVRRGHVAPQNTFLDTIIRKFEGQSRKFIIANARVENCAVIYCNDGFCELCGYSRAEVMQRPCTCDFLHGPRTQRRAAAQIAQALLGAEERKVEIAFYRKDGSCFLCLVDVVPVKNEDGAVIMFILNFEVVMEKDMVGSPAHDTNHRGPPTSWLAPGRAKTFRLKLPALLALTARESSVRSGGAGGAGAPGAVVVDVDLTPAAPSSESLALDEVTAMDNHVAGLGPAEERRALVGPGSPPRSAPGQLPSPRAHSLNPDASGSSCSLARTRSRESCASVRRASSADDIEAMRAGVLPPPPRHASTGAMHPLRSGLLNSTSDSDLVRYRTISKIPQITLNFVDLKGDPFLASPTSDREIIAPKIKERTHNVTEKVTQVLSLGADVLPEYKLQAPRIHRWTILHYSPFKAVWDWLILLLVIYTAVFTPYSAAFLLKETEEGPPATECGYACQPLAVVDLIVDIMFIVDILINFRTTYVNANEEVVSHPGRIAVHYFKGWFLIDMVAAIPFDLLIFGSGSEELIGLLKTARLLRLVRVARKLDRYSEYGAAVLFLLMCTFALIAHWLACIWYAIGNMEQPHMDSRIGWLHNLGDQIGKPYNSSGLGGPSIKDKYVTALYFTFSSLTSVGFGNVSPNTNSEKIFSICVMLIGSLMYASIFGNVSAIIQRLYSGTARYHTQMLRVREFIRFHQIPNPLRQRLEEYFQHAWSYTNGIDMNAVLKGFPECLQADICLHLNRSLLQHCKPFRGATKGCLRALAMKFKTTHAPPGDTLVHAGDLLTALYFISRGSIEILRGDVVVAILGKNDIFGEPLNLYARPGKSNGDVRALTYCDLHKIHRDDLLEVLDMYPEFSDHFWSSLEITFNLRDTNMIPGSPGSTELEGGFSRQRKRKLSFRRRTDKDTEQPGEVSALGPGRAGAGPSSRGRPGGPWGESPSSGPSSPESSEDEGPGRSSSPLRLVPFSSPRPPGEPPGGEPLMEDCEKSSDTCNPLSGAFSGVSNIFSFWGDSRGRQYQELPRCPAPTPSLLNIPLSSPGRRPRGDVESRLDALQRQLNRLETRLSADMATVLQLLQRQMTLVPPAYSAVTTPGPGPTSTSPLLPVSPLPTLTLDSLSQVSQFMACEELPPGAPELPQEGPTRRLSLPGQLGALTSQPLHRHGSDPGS
row,Compound,"hERG current change (%, negative = inhibition) at 1uM [%]"
1,COC(=O)[C@H](C)NC(=O)c1cc2c(cn1)[nH]c1ccccc12,5.31
2,O=C(CCN1CCOCC1)NC1CCCN(Cc2ccccc2F)C1 (stereo not shown),-6.2
3,c1ccc(-n2nnnc2-n2ccnc2)cc1,2.97
4,O=C(O)C(=O)O.c1ccc(-c2ccccc2OCCOCCN2CCCCC2)cc1,-18.9
5,Cc1ccc(-c2nnc(Nc3ccc4c(c3)OCO4)c3ccccc23)cc1S(=O)(=O)NC(C)C,-3.03
6,COc1ccc(OC)c(Nc2nc(-c3ccncc3)nc3ccccc23)c1,9.73
7,CCN1CCN(C(=O)CCc2nnc3ccc(N4CCC5(CC4)OCCO5)nn23)CC1,15
8,Cc1cccc(C(=O)Nc2nsc(N)n2)c1,6.52
9,CCn1nc(C)c(CN2CCCC(CO)(Cc3cccc(Cl)c3)C2)c1C (stereo not shown),-8.15
10,Cc1c(C(=O)N2CCCCC2)oc2ccc(Br)cc12,3.66
11,CC(c1ccco1)N(C(=O)c1ccccc1NS(=O)(=O)c1ccc(Cl)cc1)c1ccccn1 (stereo not shown),-3.84
12,Cc1cccc(-n2c(N)cc(=O)nc2SCC(=O)NC2CCCCC2)c1,4.35
13,O=C(NCc1cccc(F)c1)c1noc2c1CCCC2,12.5
14,O=C(c1cc2c(s1)CCC2)N1CCN(c2ccccc2)CC1,11.6
15,Cn1ncc([N+](=O)[O-])c1C(=O)N/N=C/c1c[nH]c2ccccc12,15.2
16,Cc1ccc(S(=O)(=O)N2CCN(C(=O)CCC(=O)NCCc3ccc(S(N)(=O)=O)cc3)CC2)c(C)c1,10.1
17,COC(=O)c1c(O)cc(C(C)(C)C)n(-c2ccc(F)cc2)c1=O,4.49
18,N#C/C(=C/c1ccc(-c2cc(C(=O)O)cc(C(=O)O)c2)o1)c1nc2ccccc2s1,22.1
19,CCNC(=O)/C(C#N)=C/c1c(N2CCN(c3cccc(Cl)c3)CC2)nc2c(C)cccn2c1=O,11.3
20,Cc1ccn(-c2cc(O)c(-n3ccc(C)n3)cc2O)n1,9.01
21,COCCn1c(SCC#N)nnc1-c1ccc(OC)cc1,14.3
22,Cn1c(=O)c2c(SCC(=O)Nc3ccc4c(c3)OCCO4)nc(CC(C)(C)C)nc2n(C)c1=O,15.5

row,Compound,"hERG current change (%, negative = inhibition) at 1uM [%]"
1,O=C1CCCCCC1C1(O)C(=O)Nc2ccc(Br)cc21 (stereo not shown),16.8
2,C/C(=N\NC(=O)c1ccccc1)c1ccc(C)c([N+](=O)[O-])c1,13.1
3,O=C(c1ccco1)N1CCC(c2ccccc2)C1 (stereo not shown),-5.58
4,COc1ccc(NC(=O)c2ccc(N3C(=O)C4CC=C(C)CC4C3=O)cc2)c(OC)c1 (stereo not shown),13.6
5,CC1CCCC(NC(=O)COC(=O)c2sc3ccccc3c2Cl)C1C (stereo not shown),7.76
6,COCCN1C(=O)/C(=C2/C(=O)N(CC(=O)Nc3ccccc3Cl)c3ccccc32)SC1=S,17.4
7,COC(=O)c1ccc(NC(=O)CSc2nnc(CNc3ccc(F)cc3)n2C)cc1,8.17
8,Cl.O=C(COc1ccc2ccc(=O)oc2c1)N1CCN(c2ccccc2)CC1,5.42
9,O=C(CN1CCN(C(=O)c2cccc(F)c2)CC1)Nc1ccccc1F,-36.4
10,COC(=O)C1=C(C)N(Cc2cccnc2)C(=O)/C1=C\c1sccc1C,5.41
11,CCCCn1c(N)c(N(CC(C)C)C(=O)c2cc(C)oc2C)c(=O)[nH]c1=O,15.4
12,CCOc1ccc(CN(Cc2ccco2)S(=O)(=O)c2ccc(-n3cnnn3)c(OC)c2)cc1,2.18
13,C=CCn1c(SCC(=O)Nc2nnc(C)s2)nnc1-c1cccnc1,30.2
14,O=C(Nc1nc2c(s1)CCCC2)c1ccc(Br)o1,4.52
15,O=C1CC(c2ccccc2)CC2=C1C(c1ccccn1)Nc1ccccc1N2 (stereo not shown),19.2
16,CCOc1ccc(CC(=O)Nc2cccc(-c3ccc4nnc(C)n4n3)c2)cc1,5.13
17,CCc1ccccc1NC(=S)NC1CC2CCC(C1)N2Cc1ccco1 (stereo not shown),-2.28
18,CCOc1ccc(N(CC(=O)Nc2ccc(C)c(C)c2)S(C)(=O)=O)cc1,20.5
19,CN(C)c1cccc(C(=O)OCC(=O)N2CCc3ccccc3C2)c1,6.68
20,CCOc1cc(-c2c(C#N)c(N)nc3c2CCCC3)ccc1O,18.6
21,Cc1nnc(C)n1/N=C/c1cccc(Oc2ccccc2)c1,5.24
22,O=C(NCc1ccc(N2CCCC2=O)cc1)c1ccc(F)cc1,9.09

row,Compound,"hERG current change (%, negative = inhibition) at 1uM [%]"
1,Brc1ccc(-c2cnnc(N3CCCC3)n2)cc1,-5.19
2,Brc1ccc(-c2ccc(/C=N/Nc3nc(N4CCOCC4)nc(N4CCOCC4)n3)o2)cc1,-9.33
3,COc1cccc(C(=O)C2CCCN(C3CCOCC3)C2)c1 (stereo not shown),-8.65
4,CC(=O)Nc1ccc2nc(NC(=O)CS(=O)(=O)c3ccccc3)sc2c1,1.78
5,CN(c1ccc(C(=O)Nc2ccc3c(c2)OCO3)cc1)S(C)(=O)=O,6.83
6,Cc1nc(CS(=O)(=O)c2ccc(Cl)cc2)cc(Sc2ccccc2Cl)n1,8.12
7,CSc1ccccc1NC(=O)c1c(Br)cnn1C,3.91
8,CCOc1ncccc1C(=O)NCCc1ccc(OC)cc1,10.2
9,Cc1csc(NC(=O)C2CC(=O)N(c3ccc4c(c3)OCCO4)C2)n1 (stereo not shown),2.23
10,COc1cccc(NC(=O)Nc2nccc(C)n2)c1,12.9
11,CCOC(=O)C1=CN(c2cccc(F)c2)C=C(C(=O)OCC)C1c1cc(OC)c(O)c([N+](=O)[O-])c1,3.56
12,CC1=C(C(=O)OC(C)C)C(c2cccs2)C(C(=O)OC(C)C)=C(C)N1,12.4
13,COCCN(Cc1ccccc1)C(=S)Nc1ccc(OC(F)F)cc1,-17.4
14,O=C(CN1CCCC1)Nc1cc(C(F)(F)F)cc(C(F)(F)F)c1,7.38
15,O=C(Cc1ccccc1)N1CCN=C1SCc1ccc([N+](=O)[O-])cc1,2.82
16,O=C(NNc1ccccc1)Nc1ccccc1F,15.9
17,CCOC(=O)N1CCN(C(c2ccc(C(C)C)cc2)c2sc3nc(C)nn3c2O)CC1 (stereo not shown),8.83
18,CCCCSc1nnc([C@@H]2CCCN2C(=O)OC(C)(C)C)o1,-3.58
19,CCCCC(=O)OCC(=O)Nc1ccc(C)c(F)c1,9.16
20,CCC(=O)Nc1ccc2c(c1)nc(CN1CCN(C(C)=O)CC1)n2C,3.95
21,CCn1cc(C(=O)N(CCCN2CCOCC2)Cc2ccco2)c(=O)c2ccc(C)nc21,6.18
22,COc1ccc(N2CCOCC2)c(NC(=O)COc2cccc(C)c2)c1,8.49

row,Compound,"hERG current change (%, negative = inhibition) at 1uM [%]"
1,Cc1ccc(/C=C2\C(=O)NC(=O)N(CCc3ccc(F)cc3)C2=O)o1,13.1
2,CC(C)C(=O)Nc1ccc2c(c1)oc1ccccc12,11.8
3,Cc1cc(OCC(=O)NCCc2ccc(Cl)cc2)c2c(C)cc(=O)oc2c1,11.6
4,O=C(Nc1ccccc1)Nc1ccccc1C(=O)NCc1ccccc1,10.8
5,CC1(c2nnc(-c3cccc(Cl)c3)o2)CC(c2cccc([N+](=O)[O-])c2)=NO1 (stereo not shown),16.3
6,OCCN(Cc1ccccc1)Cc1ccccc1Cl,-1.03
7,C=Cc1ccc(N=Cc2c(O)ccc3ccccc23)cc1,9.48
8,COP(=O)(OC)c1nc(-c2ccccc2)oc1N1CCOCC1,10
9,CC1=CCCC(C)(C)C1/C=C/C(C)=N/NC(=O)c1ccncc1 (stereo not shown),2.91
10,COc1ccc(NC(=O)NNC(=O)c2ccc(-c3ccccc3)cc2)cc1,3.44
11,NCCNC(=O)Cn1c(=O)c2c3c(sc2n(Cc2ccccc2)c1=O)CCCC3,9.14
12,COC(=O)c1sc(N)c(C(=O)OC)c1COC(=O)CNS(=O)(=O)c1cccc(C#N)c1,2.19
13,Cc1nc2ccccc2c2oc(C(=O)N3CC(C)CC(C)C3)cc12 (stereo not shown),11.3
14,CCCCN(C(=O)CSc1nncn1-c1ccccc1OC)c1c(N)n(Cc2ccccc2)c(=O)[nH]c1=O,18.6
15,O=C(COc1ccccc1)Nc1ccc(NC(=O)c2ccco2)cc1,4.08
16,CCOC(=O)Cn1c(-c2ccccc2)cc(SC)c(C#N)c1=O,20.3
17,COc1ccc(-n2c(=S)[nH]c3cc(C(=O)NCCCN4CCOCC4)ccc3c2=O)cc1,17
18,COC(=O)/C=C1\S/C(=N/N=C/c2ccco2)NC1=O,4.39
19,COc1cc(NC(=S)Nc2ccc(S(=O)(=O)N3CCOCC3)cc2)cc(OC)c1OC,13.2
20,COc1ccccc1CNC(=O)CCc1ccccc1,8.64
21,CCCCn1c(=O)n(CC(=O)NCc2ccc(C)cc2)c(=O)c2c1nc(CO)n2CCC,8.31
22,COc1cccc(N2CC(NC(=O)c3cccc4ccccc34)CC2=O)c1 (stereo not shown),7.17
